Article PMC12136788
The list shows a part of the results.

T1: UNK ZnF1-3 (human, UniProt Q9C0B0 31-174)
T1 sequence: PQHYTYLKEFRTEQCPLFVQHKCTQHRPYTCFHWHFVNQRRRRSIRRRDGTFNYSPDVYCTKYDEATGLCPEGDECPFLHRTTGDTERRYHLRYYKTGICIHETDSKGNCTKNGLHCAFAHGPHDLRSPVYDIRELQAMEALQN

B1: chr1:109605286:109605287:-_ENSG00000197780_ENST00000461096|hu_mus|hu_hu_hu_mus_True|8_8 (ssRNA)
RNA: GGGAGUUCUACAGUCCGACGAUCAAGUUUCAGAGUAACAUUCAGUAACCUCUUUAAAUGCAAUUAUCCUUAUUAUAAGCUAAGCAGAAUAAUAAUUUAAUACCGUAAGUGAACUACACACAAAGCCGUGUAUUCAGAAAUGGUCAACAGAGGAUUGAGCAUCA
B2: chr5:50689391:50689392:+_ENSG00000016082_ENST00000230658|hu_hu|FALSE|FALSE (ssRNA)
RNA: GGGAGUUCUACAGUCCGACGAUCAAUAGGACUGGCUACCAUGCUGUUAGGUGUAUCUGGAAGUUGAGAGGACAUUGAUGCUACUUCACUGCCAGUGGAAUUAGAGCCCGGUCCUCCUUCUGAAAAAUUGACCAGUUGCUGAAACAACAGAGGAUUGAGCAUCA
B3: chr10:92717539:92717540:-_ENSMUSG00000008398_ENSMUST00000008542|mus_mus|motif|central (ssRNA)
RNA: GGGAGUUCUACAGUCCGACGAUCCUGGAAAAGUGUGUUCGGCCCUUGCAGCCUGGCAGGACUCAGUGGGGCGACAGGACGGAGGCUGCUCCAGAAGUGUAUGCUGGGCAGCAGCGGACUCGAGGCCAGAAACAGUCCACUUGGCAACAGAGGAUUGAGCAUCA
B4: chr2:230668852:230668853:-_ENSG00000153827_ENST00000389045|hu_hu|motif|central (ssRNA)
RNA: GGGAGUUCUACAGUCCGACGAUCUAUCCUAAGAAUUGCUCUAAGGCACUUAUGUCUGACCGCAGGUCCUGCUGAGGAACGGUACACUUCAUAAAGAACACCAAAUAAUGUCUUAAUAAAAGACUUAGCCAGUUCCGGAUCCUCCAACAGAGGAUUGAGCAUCA
B5: chr9:79619141:79619142:-_ENSMUSG00000032328_ENSMUST00000034878|mus_mus|FALSE|FALSE (ssRNA)
RNA: GGGAGUUCUACAGUCCGACGAUCAAAUUAAAUGGUGAUGUCAGCAGUGUUACUACUGUUUCUAUAUUUAUGAUUAAUUACUAGCAGUACAACUCCCAGAAGGAAAGAGAUGGAUCCAAUAGUGAUGUAAGCAAUUCCCAAAAACAACAGAGGAUUGAGCAUCA
B6: chr8:3496845:3496846:+_ENSMUSG00000047264_ENSMUST00000061508|mus_hu|FALSE|FALSE (ssRNA)
RNA: GGGAGUUCUACAGUCCGACGAUCAGUAGGGCUGGGGGUGGAUCUGGAGCCGGGGAGGGGUUUGGAGCUGGGAUCCGGCAGAGUGCCCGGCCCAGAGCCAGGGUCAGGGUUGCGGCCAGAGCUGGUGCCAGGGCUGAGGCCCAACAACAGAGGAUUGAGCAUCA
B7: chr2:31472812:31472813:+_ENSMUSG00000026843_ENSMUST00000055244|mus_hu|FALSE|FALSE (ssRNA)
RNA: GGGAGUUCUACAGUCCGACGAUCUCAGUACAUUUCAAACGGAAUGUCCCUCAGGUCAAUUAGAAAUGCAAGAAAAAAUAGCUUCAAUUCCGUUUUUUUUCCUUUAAAAAUACAUGUUAUCUGUACAAGAUACACUACAGUAAACAACAGAGGAUUGAGCAUCA
B8: chr5:10264876:10264877:+_ENSG00000150753_ENST00000503026|hu_mus|FALSE|FALSE (ssRNA)
RNA: GGGAGUUCUACAGUCCGACGAUCGUAACUGCAGACGCAGCACAACAGACACACCCUUUAUUUAGUCACAGUGGUAAAUGGUACAGUUUAUUCUUCAGAUUCUCCAGGCUUACGGAUGUCAUCAAUCUUCAGAAUCAUCCUAACCAACAGAGGAUUGAGCAUCA
B9: chr7:134094464:134094465:+_ENSMUSG00000030683_ENSMUST00000106335|mus_mus|FALSE|FALSE (ssRNA)
RNA: GGGAGUUCUACAGUCCGACGAUCCUCGCUGUCACUUUCCCUCUGCGUCCUUUUAUCUUUUCCUUUAAUUUUGCUUUCCUGCUAAGGGUCGGCAAAGGAAGGCAAAUUUUCUUCCUUUGGGAUGGAGAAGCAGAAUUGGCCUAGCAACAGAGGAUUGAGCAUCA
B10: chr9:70551142:70551143:+_ENSMUSG00000054693_ENSMUST00000067880|mus_hu|FALSE|FALSE (ssRNA)
RNA: GGGAGUUCUACAGUCCGACGAUCACGCUGGUGUUUUUGGUGUAAUGAAUCCACAUUGUAAGAUAAUCCUUCAUAAUGUCUGAUAUAUUUAUUUAAAGGAUUCCCAUACUGACCUCCCAUCCCCGCCGCCCAGGAGAGGAGCAGCAACAGAGGAUUGAGCAUCA
B11: chrX:39630310:39630311:+_ENSMUSG00000025862_ENSMUST00000069619|mus_hu|FALSE|FALSE (ssRNA)
RNA: GGGAGUUCUACAGUCCGACGAUCAACAUACAACAUACUGUAGGUUUAUUUUUAUUCAAAAAGUUACUGUCUCAAGACAUAAAUACAAAUCAGAAAACAGUACAAUUAGGACAAUAGAAUGUGGAGGACAACAGGUUAGAGUAACAACAGAGGAUUGAGCAUCA
B12: chr18:33747085:33747086:+_ENSG00000134759_ENST00000351393|hu_hu|FALSE|FALSE (ssRNA)
RNA: GGGAGUUCUACAGUCCGACGAUCAGACCAAAUAAUUCUACUGUGCACAGAAGUAAUUUUGUUGGUGAAGGCAAAAAGACUAAAAACUGGCUCGAACUCAGGUGAGAUUGUAUCCUGCUUUUUCCACAAUGACCAGGUUCGAUCCAACAGAGGAUUGAGCAUCA
B13: chr6:38652254:38652255:-_ENSG00000124767_ENST00000373365|hu_mus|FALSE|FALSE (ssRNA)
RNA: GGGAGUUCUACAGUCCGACGAUCCGAGAACUUCAUAGCAGGGAAGUCAAGCUUCUGCAGGAGGGUCAGUCCAAGAACCCUCGUAUAAAAAUCCAGGGACUUCUUAGGAUCCUUAAUUCUUAGCAUCGUUUGCUGCAGUAGAAACAACAGAGGAUUGAGCAUCA
B14: chr7:54825262:54825263:-_ENSG00000132432_ENST00000352861|hu_hu|hu_hu_hu_mus_False|18_98 (ssRNA)
RNA: GGGAGUUCUACAGUCCGACGAUCCUGCCGGCUGGGCACAAACUGCAGCAUUACCUGAUCCAUGUUUGUUGGAUGGCGGAUUGAGAGCGUAGAGACACGUAGCUCAGGAGAGAACCGGAUGGAGGCCAACCGGAAGCUGGCAACCAACAGAGGAUUGAGCAUCA
B15: chr21:38595834:38595835:-_ENSG00000157538_ENST00000309117|hu_hu|FALSE|FALSE (ssRNA)
RNA: GGGAGUUCUACAGUCCGACGAUCCAUUAAAAAUGGUUUCUUCCUUUAAAAUUUCCCAGAAAGUGUGGCCUCUGUUUUCUGCUACUCAGUUUAAACACAUCAUCAAGGAUAGAUAAUUAAUGUCAGGUGAGCAUAAAAGGAGAUCAACAGAGGAUUGAGCAUCA
B16: 68295611_68295731_2284_3pUTR_ENSMUSG00000048922_ENSMUST00000150006|mouse|control|control (ssRNA)
RNA: GGGAGUUCUACAGUCCGACGAUCGUGGAGCUAAGCAUUCACUCUCUUUCUCACACUUUAGAUUCAUACUUUCUGAAACAAUAAGGAUCUCACAAGGAUUUUCCAAAUUUUGACCAGCCUUGAAAAGGUCCUGGCUCUGAGGGCCAACAGAGGAUUGAGCAUCA
B17: 86677321_86679958_414_CDS_ENSMUSG00000034290_ENSMUST00000040992|mouse|control|control (ssRNA)
RNA: GGGAGUUCUACAGUCCGACGAUCGAUGUUGUCGUGCUGUAGCAGUGCCAGGAUGACAAUCUCAUUCAGGGCAUCUCGACGUUCCUUCUCAGAUAGCCGGGUCAAGUCAACUUCCUUCCACACCACCAGUGAGUCGUCCUCGGUCAACAGAGGAUUGAGCAUCA
B18: chr1:163117072:163117073:-_ENSG00000143248_ENST00000313961|hu_hu|motif|central (ssRNA)
RNA: GGGAGUUCUACAGUCCGACGAUCGGAAAUGCAGGGUUAUUAUGGAGGAAAUAACUCACAGGAUGAUUUCAUAGCCUGGCGGAAUUACUACUUGAUUAACUCCUGAUAAAACUCAGAGCGCACAAAGCGAGGCAGAGAAUCCUUCAACAGAGGAUUGAGCAUCA
B19: 3201580_3205767_5695_CDS_ENSG00000197386_ENST00000355072|human|control|control (ssRNA)
RNA: GGGAGUUCUACAGUCCGACGAUCACUAAGUAACUUUGUGCUGGACAGACUGUGUCUUUUCGGGGUCUGCUGCACUUCUGCCCACCAGCGGUAGUCGGUGUGGUUGACAAGCAGCAGUAUCUGACACCAGAGCAGCACCAGGGCCAACAGAGGAUUGAGCAUCA
B20: chr2:146230686:146230687:-_ENSMUSG00000037110_ENSMUST00000109986|mus_hu|FALSE|FALSE (ssRNA)
RNA: GGGAGUUCUACAGUCCGACGAUCGUAACCAAUGACGGGCAUCAGCAUCAGCCACAACAUCUGUGGGAGUAUUCAGUUCUGGGUCUUCCUCACAGGUCUGCCAUGGGCCCAUGGACAGCUCUGCCUCAUUGGUACAGCCCAGAGCAACAGAGGAUUGAGCAUCA
B21: 60629684_60631069_663_3pUTR_ENSG00000146872_ENST00000343388|human|control|control (ssRNA)
RNA: GGGAGUUCUACAGUCCGACGAUCUCUUACUGUUUUCUAGUGCAGAUAUUUUUUCUAUUGUGAGGUCGGACUGGGUCUGUCUGUGCUGGAUGGAGAUCUGUUUUUGGGAGCUGCAGGAAUGCUCUGUGUUGCCAGAUCCCGUAGCAACAGAGGAUUGAGCAUCA
B22: chr2:64323713:64323714:-_ENSG00000197329_ENST00000358912|hu_mus|FALSE|FALSE (ssRNA)
RNA: GGGAGUUCUACAGUCCGACGAUCGCUUUGUACUGACUGCGUGUCGGAAUUACUCUGACUUCCAGGAACGGUGUCAGUUACUACAAAAUCAAUAGGACUUUCAGUUGACCGACCAAUCUGAAACAUAUCAGUGUUGCUGUCAUGCAACAGAGGAUUGAGCAUCA

What follows are binders tested against T1, UNK ZnF1-3 (assay: nsRBNS (natural sequence RNA bind-n-seq); RBNS binding buffer (assumed for nsRBNS): 25 mM Tris pH 7.5, 150 mM KCl, 3 mM MgCl2, 0.01% Triton X-100, 500 ug/ml BSA, 20 U/ml SUPERase-In, 4 C; UNK is unkempt and MSI1 is Musashi-1; names of the RNAs are library labels; protein concentration not given here; high values mean tight binding).

Binder	binding signal
B1	0.551 enrichment R
B2	1.53 enrichment R
B3	1.3 enrichment R
B4	1.1 enrichment R
B5	1.51 enrichment R
B6	1.62 enrichment R
B7	0.767 enrichment R
B8	1.36 enrichment R
B9	0.644 enrichment R
B10	1.25 enrichment R
B11	1.97 enrichment R
B12	1.9 enrichment R
B13	0.863 enrichment R
B14	2.13 enrichment R
B15	1.49 enrichment R
B16	0.964 enrichment R
B17	0.623 enrichment R
B18	1.53 enrichment R
B19	0.698 enrichment R
B20	1.11 enrichment R
B21	0.544 enrichment R
B22	0.382 enrichment R
